Laboratory results taken from US20250034088A1, “LIPIDS AND USES THEREOF” (TAIWAN BIO-MANUFACTURING CORPORATION, priority 2023, published 2025).
For some of these results: At least one structure is not confirmed: it was looked up by name or label, or the drawing left a doubt. Some of these results come from one statement about several compounds together.

Key:
[1] = LNP hydrodynamic size, polydispersity index and zeta potential by Zetasizer; assay type: physicochemical; conditions: FLuc mRNA-loaded LNP
Experimental: (§1) The Firefly luciferase (FLuc) reporter mRNA-loaded lipid nanoparticles (LNPs) were formulated by NANOASSEMBLR® IGNITE™. Briefly, the lipid, cholesterol, 1,2-dimyristoyl-rac-glycero-3-methoxypolyethylene glycol-2000 (DMG-PEG2000), and […] (DSPC) mixture was prepared in ethanolic solution at the % mole ratio of […]. Three units of FLuc mRNA was dissolved in 25 mM sodium acetate pH 5.0 buffer and one unit of lipid mixture were rapidly combined in the microfluidic mixing cartridge at an amine-to-phosphate (N/P) ratio constant at 6, and the instrument flow rate set at 12 mL/min. The mRNA-LNPs performed a 40-fold dilution of calcium and magnesium-free phosphate-buffered saline (PBS) to reach pH neutral. Then, LNPs were concentrated using Amicon® Ultra-15 Centrifugal Filter Unit.
(§2) The mRNA-LNPs were characterized in terms of hydrodynamic size (z-average diameter), zeta potential, and polydispersity index by ZETASIZER™ PRO BLUE (MALVERN PANALYTICAL®). A QUANT-IT™ RIBOGREEN assay kit (THERMOFISHER®) was conducted to identify the mRNA concentration and encapsulation efficiency. In brief, mRNA-LNPs were diluted in equal volumes of Tris/EDTA (TE) buffer or 2% Triton X-100 in TE buffer. After that, a RIBOGREEN reagent was added to each sample and incubated at 37° C. in absence of light for 15 min. The fluorescence intensity (Ex/Em 480/520 nm) was detected on a TECAN™ Microplate reader. The encapsulation efficiency (E.E) can be calculated by the formula: […]

HEPG2 cells = assay: Cytotoxicity in HEPG2 cells (Cell Counting Kit-8); assay type: cell-based; conditions: FLuc mRNA-LNPs
Experimental: To investigate the potential and cytotoxicity of mRNA-LNP made from novel lipids, FLuc mRNA (TRILINK®) was encapsulated into LNPs and transfected to the cell line. HEPG2 cells were maintained at 37° C. under 5% CO2 in a DMEM medium with 10% fetal bovine serum. Cells were seeded at 4×10^4 cells/well and treated with FLuc mRNA-LNPs for 18 hours while cell confluency reach 70%. To explore transfection efficiency, HEPG2 cells were treated with D-luciferin and mixed thoroughly for another incubation of 5 min at 37° C. The luminescence intensity was recorded using M200 Microplate Reader (TECAN®). Cell viability was evaluated by Cell Counting Kit-8 (SIGMA-ALDRICH®) and the absorbance was measured at 450 nm.

[2] = mRNA encapsulation efficiency by RiboGreen assay; assay type: physicochemical; conditions: FLuc mRNA-loaded LNP made with the lipid; Table 1
Experimental: as §1
as §2, with “After that, a RIBOGREEN reagent was added to each sample and incubated at 37° C. in absence of light for 15 min.” left out

Compound: CCCCCCCCC(CCCCCC)C(=O)OCCCCCCO[C@H]1CN(CCCO)C[C@H]1OCCCCCCOC(=O)C(CCCCCC)CCCCCCCC (stereo partly drawn) [Compound 14, (((3S,4R)-1-(3-hydroxypropyl)pyrrolidine-3,4-diyl)bis(oxy))bis(hexane-6,1-diyl)bis(hexyldecanoate)]
- LNP zeta potential (mV) ([1]; Table 1): 14.09 mV
- PDI ([1]; Table 1): 0.050
- LNP size (nm) ([1]; Table 2): 82.45 nm
- LNP zeta potential (mV) ([1]; Table 2): 14.09 mV
- PDI ([1]; Table 2): 0.050
- LNP size (nm) ([1]; z-average diameter, Table 1): 82.45 nm
- toxicity (HEPG2 cells): less than 10%

Compound: CCCCCCCCC(CCCCCCCC)OC(=O)CCCCCO[C@H]1CN(CCCO)C[C@H]1OCCCCCC(=O)OC(CCCCCCCC)CCCCCCCC [Compound 11, di(heptadecan-9-yl)6,6′-(((3R,4S)-1-(3-hydroxypropyl)pyrrolidine-3,4-diyl)bis(oxy))dihexanoate]
- toxicity (HEPG2 cells): less than 10%

Compound: CCCCCCCCC(CCCCCC)C(=O)OCCCCCCO[C@H]1CN(CCCCCO)C[C@H]1OCCCCCCOC(=O)C(CCCCCC)CCCCCCCC (stereo partly drawn) [Compound 15, (((3S,4R)-1-(5-hydroxypentyl)pyrrolidine-3,4-diyl)bis(oxy))bis(hexane-6,1-diyl)bis(2-hexyldecanoate)]
- LNP zeta potential (mV) ([1]; Table 1): 10.29 mV
- PDI ([1]; Table 1): 0.051
- LNP size (nm) ([1]; z-average diameter, Table 1): 81.53 nm

Compound: CCCCCCCCC(CCCCCC)C(=O)OCCCCCO[C@H]1CN(CCCO)C[C@H]1OCCCCCOC(=O)C(CCCCCC)CCCCCCCC (stereo partly drawn) [Compound 5, (((3S,4R)-1-(3-hydroxypropyl)pyrrolidine-3,4-diyl)bis(oxy))bis(pentane-5,1-diyl)bis(2-hexyldecanoate)]
- LNP zeta potential (mV) ([1]; Table 1): 4.37 mV
- PDI ([1]; Table 1): 0.010
- LNP size (nm) ([1]; z-average diameter, Table 1): 86.05 nm

Compound: CCCCCCCCC(CCCCCC)C(=O)OCCCCCO[C@H]1CN(CCCCCCO)C[C@H]1OCCCCCOC(=O)C(CCCCCC)CCCCCCCC (stereo partly drawn) [Compound 10, (((3S,4R)-1-(6-hydroxyhexyl)pyrrolidine-3,4-diyl)bis(oxy))bis(pentane-5,1-diyl)bis(2-hexyldecanoate)]
- LNP zeta potential (mV) ([1]; Table 1): −0.46 mV
- PDI ([1]; Table 1): 0.023
- LNP size (nm) ([1]; z-average diameter, Table 1): 82.64 nm

Compound: CCCCCCCCC(CCCCCC)C(=O)OCCCCCCO[C@H]1CN(CCCCO)C[C@H]1OCCCCCCOC(=O)C(CCCCCC)CCCCCCCC (stereo partly drawn) [Compound 16, (((3S,4R)-1-(4-hydroxybutyl)pyrrolidine-3,4-diyl)bis(oxy))bis(hexane-6,1-diyl)bis(2-hexyldecanoate)]
- Encap)-sulation (% [2]: 96.34%
- LNP zeta potential (mV) ([1]; Table 1): 10.71 mV
- PDI ([1]; Table 1): 0.045
- LNP size (nm) ([1]; z-average diameter, Table 1): 84.99 nm

Compound: CCCCCCCCC(CCCCCC)C(=O)OCCCCCO[C@H]1CN(CCO)C[C@H]1OCCCCCOC(=O)C(CCCCCC)CCCCCCCC (stereo partly drawn) [Compound 6, (((3S,4R)-1-(2-hydroxyethyl)pyrrolidine-3,4-diyl)bis(oxy))bis(pentane-5,1-diyl)bis(2-hexyldecanoate)]
- LNP zeta potential (mV) ([1]; Table 1): 8.21 mV
- PDI ([1]; Table 1): 0.030
- LNP size (nm) ([1]; z-average diameter, Table 1): 78.86 nm

Compound: CCCCCCCCC(CCCCCC)C(=O)OCCCCCO[C@H]1CN(CCCCCO)C[C@H]1OCCCCCOC(=O)C(CCCCCC)CCCCCCCC (stereo partly drawn) [Compound 9, (((3S,4R)-1-(5-hydroxypentyl)pyrrolidine-3,4-diyl)bis(oxy))bis(pentane-5,1-diyl)bis(2-hexyldecanoate)]
- LNP zeta potential (mV) ([1]; Table 1): 9.61 mV
- PDI ([1]; Table 1): 0.066
- LNP size (nm) ([1]; z-average diameter, Table 1): 102.00 nm

Compound: CCCCCCCCC(CCCCCC)C(=O)OCCCCO[C@H]1CN(CCCO)C[C@H]1OCCCCOC(=O)C(CCCCCC)CCCCCCCC (stereo partly drawn) [Compound 8, (((3R,4S)-1-(3-hydroxypropyl)pyrrolidine-3,4-diyl)bis(oxy))bis(butane-4,1-diyl)bis(2-hexyldecanoate)]
- Encap)-sulation (% [2]: 97.75%
- LNP zeta potential (mV) ([1]; Table 1): 2.60 mV
- PDI ([1]; Table 1): 0.035
- LNP size (nm) ([1]; z-average diameter, Table 1): 86.87 nm
